{
  "source": "the supplement of paper PMC12645437",
  "about": "“Orthogonal IMiD-Degron Pairs Induce Selective Protein Degradation in Cells” (ACS Chemical Biology, 2025)",
  "note": "The other results are listed elsewhere or left out.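 Note: jurkat cells carrying a lentiviral library of mutant zinc finger degrons fused to EGFP plus mCherry, mCherry+ cells FACS sorted, degron abundance counted by next-generation sequencing.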",
  "data": [
    {"molecular_target": "no compound (DMSO)", "assay": "log2 fold change of degron read counts, EGFP-low vs EGFP+ sorted cells; higher = lower degron-EGFP level without compound (poor expression or instability)", "conditions": "compound: DMSO control; 18 h", "values": [
      {"sequence": "FGCPVCGATFTQKGNLLRHIKL", "log2 fold change of degron read counts": 0.127},
      {"sequence": "FGCEVCGASFTQKGNLLRHIKL", "log2 fold change of degron read counts": -1.53},
      {"sequence": "LFCPICGFECTQKGNLLRHIKL", "log2 fold change of degron read counts": 1.04},
      {"sequence": "FKCPVCGAGFTQKGNLLRHIKL", "log2 fold change of degron read counts": -0.548},
      {"sequence": "FECDICGAKFTQKGNLLRHIKL", "log2 fold change of degron read counts": -0.882},
      {"sequence": "LVCNQCGFDCTQKGNLLRHIKL", "log2 fold change of degron read counts": -0.964},
      {"sequence": "FICNQCGHEFTQKGNLLRHIKL", "log2 fold change of degron read counts": -2.15},
      {"sequence": "FCCEICGHYFTQKGNLLRHIKL", "log2 fold change of degron read counts": -1.19},
      {"sequence": "FMCEICGAGFTQKGNLLRHIKL", "log2 fold change of degron read counts": -1.04},
      {"sequence": "FTCEICGHSFTQKGNLLRHIKL", "log2 fold change of degron read counts": -2.51},
      {"sequence": "FTCEVCGAYFTQKGNLLRHIKL", "log2 fold change of degron read counts": -0.506},
      {"sequence": "FDCNQCGHHFTQKGNLLRHIKL", "log2 fold change of degron read counts": 0.897},
      {"sequence": "LTCNQCGFHCTQKGNLLRHIKL", "log2 fold change of degron read counts": 0.259},
      {"sequence": "FSCEICGREFTQKGNLLRHIKL", "log2 fold change of degron read counts": -1.81},
      {"sequence": "FICNQCGARFTQKGNLLRHIKL", "log2 fold change of degron read counts": -0.631},
      {"sequence": "LHCEICGFFCTQKGNLLRHIKL", "log2 fold change of degron read counts": 1.09},
      {"sequence": "LVCEICGFPCTQKGNLLRHIKL", "log2 fold change of degron read counts": 0.307},
      {"sequence": "FSCPICGAWFTQKGNLLRHIKL", "log2 fold change of degron read counts": 0.283},
      {"sequence": "FMCEVCGAIFTQKGNLLRHIKL", "log2 fold change of degron read counts": 0.0367},
      {"sequence": "FLCPVCGATFTQKGNLLRHIKL", "log2 fold change of degron read counts": -0.321},
      {"sequence": "FGCNICGACFTQKGNLLRHIKL", "log2 fold change of degron read counts": 0.119},
      {"sequence": "FLCNQCGHKFTQKGNLLRHIKL", "log2 fold change of degron read counts": 0.331},
      {"sequence": "FTCPICGAAFTQKGNLLRHIKL", "log2 fold change of degron read counts": -0.264},
      {"sequence": "FDCSVCGHQFTQKGNLLRHIKL", "log2 fold change of degron read counts": -2.08},
      {"sequence": "FKCNQCGAGFTQKGNLLRHIKL", "log2 fold change of degron read counts": -0.475},
      {"sequence": "FNCPVCGAIFTQKGNLLRHIKL", "log2 fold change of degron read counts": 0.14},
      {"sequence": "FMCEICGHDFTQKGNLLRHIKL", "log2 fold change of degron read counts": -1.77},
      {"sequence": "LECEICGFFCTQKGNLLRHIKL", "log2 fold change of degron read counts": 1.44},
      {"sequence": "FCCEICGHKFTQKGNLLRHIKL", "log2 fold change of degron read counts": -2.36},
      {"sequence": "FWCEICGHFFTQKGNLLRHIKL", "log2 fold change of degron read counts": 1.12},
      {"sequence": "FFCNVCGAGFTQKGNLLRHIKL", "log2 fold change of degron read counts": -0.489},
      {"sequence": "FSCNQCGAEFTQKGNLLRHIKL", "log2 fold change of degron read counts": -1.62}
    ]}
  ]
}
